# Laboratory results taken from the supplement of paper PMC11417369.
# The list shows a part of the results.
# Tested on: PfAP2-HC AP2 domain (GST-tagged)
# Assay: gcPBM binding intensity (ln(normalized median fluorescence intensity)); higher = stronger DNA binding
# Outline: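 The highest Masliner-normalised natural-log median intensity across replicate spots of either probe orientation is reported as binding intensity. GST-tagged P. falciparum DNA-binding domains expressed in E. coli were applied for 1 h to an Agilent 4 × 180k array of primer-extended double-stranded 36-bp intergenic genomic probes plus negative controls, and bound protein was detected with Alexa488 anti-GST antibody and scanned at 488 nm.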
row,Sequence,gcPBM binding intensity (ln)
1,ATGTAATTATAAGATTAATATACATAATTATATGTA [GTGCAC_negctrl_site458],9.57
2,CATAGATACATACACGCACACACATATATATATATA [CACACA_site13],10.3
3,GTATTACCTTATTATTGTACTTTCATGATATATATG [XGTACX_site5382],9.84
4,TTAATGAATGGACACACACACATATATATATATATT [CACACA_site5294],10.2
5,ATAAAAAAAATTTGCACACCTTCAAAGTAATATATA [CACACA_site1584],9.8
6,TAATTTTTTTTTTTTTTTTTTGTACTTCATTTTTAT [CACACA_negctrl_site1395],9.58
7,AAAAAAAAAAAAAGTACATGCAATATGGATCTTAAA [TGCATGCA_site367],9.74
8,CATATAAAAGGACACACACACACATATAAATATGTA [CACACA_site6568],10.4
9,TGCTATTTTATTTATTCTTTTATAAAAGTATAATAT [XGTACX_negctrl_site358],9.64
10,ATTTTTATAGAATGAACACACATATTATAGCATTTA [CACACA_site6842],9.67
11,ATTATAATGTTAATGTGTACATATGATTCCTTAATT [XGTACX_site181],9.71
12,TATGTTTTTACATATTGTACATATTCTTGTAATACG [XGTACX_site1179],9.66
13,TATGTGTGCAAAAACTGTACACATTAAAGGTATATA [XGTACX_site7627],10.1
14,ATAAATAAATAAGTACATATATATATGTATATATAT [TGCATGCA_negctrl_site223],9.84
15,ATGACATGTTCTAAATGTACATTTTTTAACCCTTTT [XGTACX_site1858],9.68
16,TATGGTTACATTATATGTACTAAACGAATATTTTTA [XGTACX_site5694],9.57
17,TATACAAGTATATAGGTGCATATATAAGTATATATT [GTGCAC_site9994],9.69
18,TACTTTCAAAAGATCACACATATATATATATATATA [CACACA_site5630],9.67
19,TAATAACATACAGACACACACGTAAAAGCACGTGTA [CACACA_site4299],10.2
20,TAATATATATATATATGTACATATATATTATGTATA [XGTACX_site4690],9.54
21,AGATTATTTAGAATGTGTACATATTACACATACATG [XGTACX_site8634],9.65
22,ACTACATTATGTCATACATGCATACATACGTGGTTT [TGCATGCA_site732],9.81

row,Sequence,gcPBM binding intensity (ln)
1,AGTAATTTAAGGAATACACACAAGAAAAAAATAAGA [CACACA_site6177],10.1
2,CATTAAAAGTATAATTGTACTTTTCATTTATATATT [XGTACX_site7536],9.63
3,GTATACCTTTTGACATGTACGTATGTATATTTGGGT [XGTACX_site720],9.78
4,TTTTTAACCAAACATCAAAACATATTTTTTTGTTAT [CACACA_negctrl_site385],9.48
5,CATACATACAAACACACACACACACCCATATATATA [CACACA_site2918],11.1
6,AATATTTTCTTGTACGCATGCACATCCAAATTATAT [TGCATGCA_site873],9.89
7,TGACCTGTTCAGGTAACACACATATAAACACATACA [CACACA_site4186],9.91
8,ATATATTAATAATTTTGTACGCATTTCCTTTTTATT [XGTACX_site1638],9.68
9,GAAAATATTTCCGTATGTACTTATTTTAGTCTACTA [XGTACX_site471],9.74
10,AAAAAAAAAAAAAAATGTACAAATAAAGAAATATGA [XGTACX_site4371],9.58
11,ATACCCACTTAAAATACACACACACCGAAAAAAAAA [CACACA_site8867],10.2
12,AGGTTCTTTTTAAATGGTACACATAATTTGAAGATA [XGTACX_site400],9.26
13,GTGTATAGAATGGTTTCTTTTAAGGTTTTTATTTTT [CACACA_negctrl_site564],9.84
14,TCTTAAAAGGGGAATGGAATGGAGAAAATGAAATAA [GTGCAC_negctrl_site30],9.43
15,ATGAATACAAAATTATACAAAATTATCAAAAGTATG [CACACA_negctrl_site1453],9.77
16,CTTTTTATTTAGAACACACACAAAAAAAAAAAAAAA [CACACA_site1761],9.41
17,TGCAGTCTGGAGAAACGTACATAGTATCTGGTAGCT [XGTACX_site4937],9.56
18,ATACATAAATATATATGTACATATATATATATATAT [XGTACX_site1055],9.75
19,AAAATATATTTAAATTGTACACGTTACCATAACAAT [XGTACX_site2598],9.66
20,TTTTTTAAATGTATTAAAATTATATATATATATATA [GTGCAC_negctrl_site570],9.34
21,ATACATAAATTTAGAAGTACATAACAAATTTTTAAA [XGTACX_site7448],9.68
22,AATCAAAACAACAATAGTACATAAAAAAACAAAACA [XGTACX_site4181],9.9

row,Sequence,gcPBM binding intensity (ln)
1,ATTAAATGTTATATTTGTACATATTATATATATATA [XGTACX_site5095],9.68
2,TCCATATTTGTTCACACACACACATATTTATATATA [CACACA_site3570],10.9
3,TTTGTTATTTTTTATTGTACTTTTTTTCTTTCATAA [XGTACX_site4302],9.8
4,TTCATTTTTTATTATAGTACACATAATATTTGCAGA [XGTACX_site4032],9.59
5,TATATATATATGTGCGTGCACGTTACCTTGCTGTTT,9.85
6,TTTCCAAATACAACTACACACAAACAAAAGTTATAT [CACACA_site6544],10.2
7,AAATTTAACAACTTCAAACACACAATATATATATAT [CACACA_site2092],9.82
8,TCCTATATATAAATATTAATATATATGTATTGGTAT [GTGCAC_negctrl_site23],9.61
9,TATAATAATAATTATACATGCATGAATATTTATATG [TGCATGCA_site811],9.55
10,AAAAAAAAAAAAAACACACACACAAATACAAATGGT [CACACA_site1721],10.5
11,TTTCTTATTTTGGATTGTACGTATATTTTTCATTTT [XGTACX_site224],10
12,TTACACATGAGAAAATGTACATATAATAAAATATGT [XGTACX_site904],9.68
13,TTATATTTCAATCATATTGTCACAAGTCATATTTAT [GTGCAC_negctrl_site366],9.56
14,ATGGACAAGTTAAACGCACACAAATATATACACCCA [CACACA_site8478],10.6
15,AATAAAAAAAATAGCATACACACATATATACATATA [CACACA_site659],10.2
16,AACAAAAAAAAAAAAAAAAAAAAAAAAAAAAAAATG [CACACA_negctrl_site1127],9.24
17,ATGTTCTTATTATTGGTGCAAGAATACACAAGAAAA,9.64
18,TATTGTTCTTATTTAGTGCATATATAATATAATATA [GTGCAC_site9827],9.43
19,AACACATAATAAAATTGTACCCAACATTTCTTTTGA [XGTACX_site8061],9.76
20,TATGTGAATAAATAAGCACACATAAACACATATATA [CACACA_site9359],10
21,TTTTGAAGCTTTAAAACATATATATATATATATATA [CACACA_negctrl_site184],9.63
22,AGCAAAACAAAAAAATTAAAATTAACATATAATCAT [GTGCAC_negctrl_site393],9.62

row,Sequence,gcPBM binding intensity (ln)
1,AATAAGAGGATACATTGTACATAAAAAAAAAAAATA [XGTACX_site1815],9.61
2,TATATAAACACGTACACACACATATCTGTATTTATA [CACACA_site5858],10.4
3,AATACCTACCAAACATGTACATACGCTTCTCAAATA [XGTACX_site5535],9.67
4,GTGAGCTCAGACTACACACACAAAGAAAAAAATAAA [CACACA_site1553],9.98
5,AACAAATACAGACACACACACACACCCAAAAAAAAA [CACACA_site515],10.9
6,ATACAACAAAAATAAGCACACACAAATATACATACA [CACACA_site9201],10.8
7,ATAAAAATTTAAAAAGAACACACGAAAGAAGGACTT [CACACA_site3929],9.98
8,TTTATAACATTTAAGAGTACAAAAAAATAAATAAAT [XGTACX_site1264],9.56
9,TAAAAGATAAAATATGCATGTGTAATTTTTTTTTTT [TGCATGCA_site955],9.62
10,GAAATATAATTTATTACACACATTTTAAAAAAATTC [CACACA_site1087],9.6
11,TTCAACGTTTTGGAATGTACAGAAAGGTATCCATCA [XGTACX_site179],9.44
12,AAAAAAAAAAAAAAAAAAAAAAAAAAAAAATATGTG [GTGCAC_negctrl_site657],9.38
13,AAAAAAATATATAAATGTACATATTGTTTAATTAAT [XGTACX_site3794],9.74
14,ATGAACTAAACTAATCGTACAATAAGTTTTATTATA [XGTACX_site4891],9.41
15,ATCTATCATATTTATGCACACAAAAATAATTAATTC [CACACA_site8837],9.85
16,TCACACACTCTCAAAAGTACAAGAAGATTATGAAGA [XGTACX_site4748],9.73
17,TATTATTTACTTATTGCACACATATAAAATATATTT [CACACA_site9017],9.84
18,AATTTACAAAAAAGAAAAAAAAAAAAAAAGATACTT [CACACA_negctrl_site1434],9.5
19,ATATGCACTCATTGTGCACACGCATATTACGAAAAG [CACACA_site2637],9.87
20,ATATTATAATGTTTTTACGAATTCGCAAATTATTAT [GTGCAC_negctrl_site470],9.74
21,TTTTTTTTTTTTTTTTTTTTTTTTTTATGATATATA [GTGCAC_negctrl_site365],8.91
22,TTAATTATCCATTTTGCACACATTTTAAAACATGAA [CACACA_site189],9.8
